# Test results from the supplement of paper PMC9135407.
# Several values for one entry are separate records, joined by “and”; a condition that tells them apart may be missing. Equal entries are not always repeated. Structures can show the parent of a compound that is named as a salt. Among all 5,800 compounds or so, about 620 (11%) showed activity.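 Rule for the calls: active = score above a cut-off or among the top three wells of a plate; in these data no inactive exceeds 0.85.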 The entries are a selection whose mix differs from that of the whole data set.
# Test system: primary human hepatic stellate cells (donor 1)
# Experiment: scaled lipid accumulation score (0 = DMSO-like, 1 = nortriptyline-like); higher = stronger HSC inactivation (lipid re-accumulation), active = hit call of the paper
# Conditions: 48 h
# Description: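 Primary lipid accumulation screen in primary human hepatic stellate cell myofibroblasts (donor 1, passage 8) in 384-well plates. 100 nL of library compound was pin-transferred into 30 µL medium in duplicate, and cells were treated for 48 h. The 'Scaled' score combines distance from plate baseline, toxicity and reproducibility penalties, and is normalised to nortriptyline (positive) and DMSO (negative) controls on each plate. A hit is defined as scaled >0.85 or among the top 3 wells per plate.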
# [1] = library stock concentration: 10 mM
# [2] = library stock concentration: 80 uM
# [3] = library stock concentration: 400 uM
# [4] = library stock concentration: 3.33 mM
smiles,measurement,setting,value
CC(C)NCC(O)COc1cccc2ccccc12 (centres undefined),scaled lipid accumulation score,[1],inactive: 0.847
Cc1nc(NC(=O)N2CCC[C@H]2C(N)=O)sc1-c1ccnc(C(C)(C)C(F)(F)F)c1,scaled lipid accumulation score,[2],inactive: 0.059
same,scaled lipid accumulation score,[3],inactive: ≤ -0.016
same,scaled lipid accumulation score,library stock concentration: 2 mM,inactive: 0.002
same,scaled lipid accumulation score,[4],inactive: ≤ 0
same,scaled lipid accumulation score,[1],inactive: ≤ 0 and inactive: ≤ -0.016
CC(C)=CCC[C@](C)(O)C1CC=C(C)CC1 (some centres undefined) [Bisabolol],scaled lipid accumulation score,[1],inactive: 0.049
CC(C)C[C@H](NC(=O)[C@H]1O[C@@H]1C(=O)O)C(=O)NCCCCN=C(N)N,scaled lipid accumulation score,[4],inactive: 0.177
same,scaled lipid accumulation score,[1],inactive: ≤ 0 and inactive: ≤ -0.07
O=C(/C=C\n1cnc(-c2cc(C(F)(F)F)cc(C(F)(F)F)c2)n1)NNc1cnccn1,scaled lipid accumulation score,[4],inactive: ≤ -0.009
same,scaled lipid accumulation score,[1],inactive: 0.384
CN(C)Cc1ccc(-c2nc3cccc4c3n2CCNC4=O)cc1,scaled lipid accumulation score,[4],inactive: 0.037
same,scaled lipid accumulation score,[1],inactive: 0.491
Cc1[nH]c(/C=C2\C(=O)Nc3ccc(S(=O)(=O)N(C)c4cccc(Cl)c4)cc32)c(C)c1C(=O)N1CCN(C)CC1,scaled lipid accumulation score,[2],inactive: 0.129
same,scaled lipid accumulation score,[3],inactive: 0.261
CCCCCCc1ccc(O)cc1O [Hexylresorcinol],scaled lipid accumulation score,[1],inactive: 0.055
N[C@@H](CC(=O)Nc1ccc(Oc2cc(F)c(F)cc2Br)cc1)C(=O)O,scaled lipid accumulation score,[1],inactive: ≤ -0.001
CC1(C)NC(=O)N(c2ccc([N+](=O)[O-])c(C(F)(F)F)c2)C1=O [Nilutamide],scaled lipid accumulation score,,inactive: ≤ 0
same,scaled lipid accumulation score,library stock concentration: 6.3 mM,inactive: ≤ 0
same,scaled lipid accumulation score,[1],inactive: ≤ -0.055 and inactive: ≤ -0.027 and inactive: ≤ 0
Oc1c2ccccc2c2c3c(cccc13)N=N2,scaled lipid accumulation score,[1],inactive: ≤ -0.006
same,scaled lipid accumulation score,library stock concentration: 22.7 mM,inactive: ≤ -0.006
COC(=O)[C@@H]1[C@H]2C[C@H]3c4[nH]c5ccccc5c4CCN3C[C@@H]2CC[C@@H]1O [Yohimbine HCl],scaled lipid accumulation score,[4],inactive: ≤ 0
same,scaled lipid accumulation score,[1],inactive: ≤ 0
COC(=O)[C@@H]1[C@H]2C[C@H]3c4[nH]c5ccccc5c4CCN3C[C@@H]2CC[C@@H]1O [Yohimbine hydrochloride],scaled lipid accumulation score,,inactive: ≤ 0
same,scaled lipid accumulation score,library stock concentration: 5.1 mM,inactive: ≤ 0
same,scaled lipid accumulation score,[1],inactive: 0.016 and inactive: 0.145 and inactive: 0.236
O=C1CCc2ccc(OCCCCN3CCN(c4cccc(Cl)c4Cl)CC3)cc2N1,scaled lipid accumulation score,[1],active: 0.964
C=C(C)[C@@H]1CC=C(C(=O)O)CC1 [Perillic acid (-)],scaled lipid accumulation score,[1],inactive: ≤ 0
C=C(C)[C@@H]1CC=C(C(=O)O)CC1 [(-)-Perillic acid],scaled lipid accumulation score,[1],inactive: ≤ 0
C[C@@H]1O[C@@H](O[C@H]2[C@H](Oc3cc(O)c(C(=O)CCc4ccc(O)cc4)c(O)c3)O[C@H](CO)[C@@H](O)[C@@H]2O)[C@H](O)[C@H](O)[C@H]1O [Naringin Dihydrochalcone],scaled lipid accumulation score,[4],inactive: ≤ 0
same,scaled lipid accumulation score,[1],inactive: 0.078
CCCCNC(=O)NS(=O)(=O)c1ccc(C)cc1,scaled lipid accumulation score,[1],inactive: ≤ 0
CCCCNC(=O)NS(=O)(=O)c1ccc(C)cc1 [Tolbutamide],scaled lipid accumulation score,,inactive: ≤ 0
same,scaled lipid accumulation score,[4],inactive: ≤ 0
same,scaled lipid accumulation score,[1],inactive: ≤ 0
same,scaled lipid accumulation score,library stock concentration: 18.5 mM,inactive: 0.073
"O=C(O)CCC/C=C\C[C@H]1C(=O)C=C[C@@H]1CC[C@@H](O)CCc1ccccc1 [17-phenyl trinor-13,14-dihydro Prostaglandin A2]",scaled lipid accumulation score,library stock concentration: 1 mM,inactive: ≤ 0
O=C(O)c1cc(-c2ccc(F)cc2F)ccc1O [Diflunisal],scaled lipid accumulation score,,inactive: ≤ 0
same,scaled lipid accumulation score,library stock concentration: 8 mM,inactive: ≤ 0 and inactive: ≤ -0.001
same,scaled lipid accumulation score,[1],inactive: ≤ 0
O=C(Nc1cccc(Nc2ncc(Br)c(NCCc3c[nH]cn3)n2)c1)N1CCCC1,scaled lipid accumulation score,[1],active: 0.978
CC(=O)[C@H]1CC[C@H]2[C@@H]3C[C@H](C)C4=CC(=O)CC[C@]4(C)[C@H]3[C@@H](O)C[C@]12C [Medrysone],scaled lipid accumulation score,,inactive: ≤ 0
same,scaled lipid accumulation score,library stock concentration: 5.8 mM,inactive: 0.001
same,scaled lipid accumulation score,[1],inactive: ≤ 0
CC(=O)[C@H]1CC[C@H]2[C@@H]3C[C@H](C)C4=CC(=O)CC[C@]4(C)[C@H]3[C@@H](O)C[C@]12C,scaled lipid accumulation score,[1],inactive: ≤ 0
O=C(Nc1c(Cl)cncc1Cl)c1ccc(OC(F)F)c(OCC2CC2)c1 [Roflumilast],scaled lipid accumulation score,[4],inactive: ≤ 0
same,scaled lipid accumulation score,[1],inactive: ≤ 0
CCOC(=O)OC(C)OC1=C(C(=O)Nc2ccccn2)N(C)S(=O)(=O)c2ccccc21 (centres undefined),scaled lipid accumulation score,[1],inactive: ≤ 0
CCOC(=O)OC(C)OC1=C(C(=O)Nc2ccccn2)N(C)S(=O)(=O)c2ccccc21 (centres undefined) [Ampiroxicam],scaled lipid accumulation score,[4],inactive: ≤ 0
same,scaled lipid accumulation score,library stock concentration: 4.5 mM,inactive: ≤ 0
same,scaled lipid accumulation score,[1],inactive: ≤ -0.001
"CCCS(=O)(=O)Nc1ccc(F)c(C(=O)c2c[nH]c3ncc(-c4ccc(Cl)cc4)cc23)c1F [Vemurafenib (PLX4032, RG7204)]",scaled lipid accumulation score,[4],inactive: ≤ 0
same,scaled lipid accumulation score,[1],inactive: ≤ 0
